Hit rate of the full screen: of about 150,000 compounds, about 540 (0.36%) showed an effect of 50% or more. The list shows a part of the results.

The test system of this experiment is Plasmodium falciparum. The experiment in a line: Primary screen in NF54 nanoGlo assay, in single point, at 2uM, 72h; a lower Z score goes with more inhibition. Type of experiment: functional, Erythrocyte. The note with it: timepoint 72 hour.
Broadly, the % Inhibition is the drop in the measured response relative to a control, in per cent. Take `O=C(c1ccc2[nH]nnc2c1)N1CCC(n2cnnc2)CC1`: the “% Inhibition” value was -16% and the Z score is 1.45.
Consider `CN(CCC(=O)NC(C)(C)C)Cc1ccon1`, for which the “% Inhibition” value is -19% and the Z score is reported as 1.7.
Regarding `Cc1ccc(C(=O)N2CCC3(CC2)C[C@@H](N2CCN(c4ccccc4)CC2)CCO3)cn1`, the “% Inhibition” value is -27% and the Z score stood at 2.91.
The corresponding values for `CC(C)OC(=O)[C@H](Cc1ccc(O)cc1)NC(=O)C1CCCC(=O)N1` (stereo partly specified) are 2% and -0.32.
For `COc1ccc(NC(=O)c2csc(COc3ccc4c(c3)[C@H](c3cccc(F)c3)N(C(C)=O)CC4)n2)cc1`, the “% Inhibition” value was -11% and the Z score is listed as 0.99.
The corresponding values for `C[C@H]1CCCCN1CCCNC(=O)c1cc2n(n1)CCN(Cc1ccc(Cl)cc1)C2=O` are -6% and 0.68.
As for `CCc1nnc(NCCc2ccc3c(c2)CCO3)nc1CC`, the “% Inhibition” value is -17% and the Z score turned out to be 1.66.
As to `O=C(NC1CCN(Cc2cc(F)cc(F)c2)CC1)[C@H](O)C1CCCCC1`, the “% Inhibition” value is -8% and the Z score was 1.14.
The matching figures for `CCn1c(CN2CCc3ccccc3C2)nc2cc(S(=O)(=O)N3CCCCC3)ccc21`: -2% and 0.24.
Take `COC(=O)c1cc(Cl)cc(C)c1NC(=O)[C@@H]1CCCCO1`: the “% Inhibition” value was -2% and the Z score was 0.43.
The matching figures for `CCOC(=O)c1cn(C)nc1NC(=O)[C@@H](C)C1CC1`: -17% and 1.87.
On to `CCc1nnc2ccc(C(=O)NC[C@H](C)O)cn12`, for which the “% Inhibition” value is reported as -7% and the Z score is 1.18.
Regarding `CCOC(=O)C1CCN(CNC(=O)c2ccccc2)CC1`, the “% Inhibition” value came out at 1% and the Z score is -0.14.
In the case of `CC(C)(C)CNCC(=O)NCc1ccco1`, the “% Inhibition” value was -10% and the Z score is 1.26.
The matching figures for `CC(=O)N[C@H]1CN(c2ncnc(C)c2C)C[C@@H]1c1ccc(C)cc1`: -1% and 0.11.
As to `Cc1cc(C(=O)Nc2nc3c(s2)CCCC3)n(C)n1`, the “% Inhibition” value turned out to be 11% and the Z score is -1.45.
On to `NC(=O)CC1CCN(S(=O)(=O)CCc2ccccc2)CC1`, for which the “% Inhibition” value is -2% and the Z score came out at 0.28.
The matching figures for `CC(C)N1CCC[C@H](C(=O)N2CCC3(CC2)C(=O)N(C)c2ccccc23)C1`: -14% and 1.27.
Take `O=C(NCc1cccnc1-n1ccnc1)c1ccccc1Cl`: the “% Inhibition” value worked out at 2% and the Z score is given as -0.22.
With `CC(C)C[C@@](C)(CO)NCC(=O)NC1CCCC1`, the “% Inhibition” value is 10% and the Z score is -1.32.
Consider `CCN1CCCCc2cc(C(=O)N(C)CCN(C)C)sc21`, for which the “% Inhibition” value is listed as -14% and the Z score stood at 2.2.
As for `C=CCN1C[C@H](C)N(CCn2cc(Cl)cn2)C[C@@H]1C`, the “% Inhibition” value was -5% and the Z score is on record as 0.98.
For `CCCn1nnc2cc(S(=O)(=O)N3CCCC[C@H]3C(=O)Nc3cc(OC)ccc3OC)ccc21`, the “% Inhibition” value is recorded as -15% and the Z score is reported as 1.34.
The matching figures for `Cn1ccc2cccc(NC(=O)N3CC(C)(CO)C3)c21`: 30% and -4.3.
Consider `Cc1cnn(Cc2ccccc2Cl)c1NC(=O)N[C@H]1CCC(=O)N(C)C1`, for which the “% Inhibition” value came to 11% and the Z score was -1.56.
Regarding `Nc1nc([C@H]2C[C@@H](NC(=O)C(c3ccccc3)c3ccccc3)C2)cc(=O)[nH]1`, the “% Inhibition” value was -11% and the Z score came to 1.4.
With `CN1CCN2CCN(Cc3ccc(-c4ccco4)cc3)C[C@@H]2C1`, the “% Inhibition” value is recorded as -9% and the Z score amounted to 1.63.
The matching figures for `COCC(=O)Nc1cc(-c2ccc3c(c2)CCCC3)nn1-c1ccccc1`: -5% and 0.91.
On to `O=S(=O)(NCc1cccc2c1OCO2)c1cnn2c1OCCC2`, for which the “% Inhibition” value came to 4% and the Z score is reported as -0.41.
The matching figures for `O=c1[nH]c2cc(-c3nc(-c4cccnn4)no3)ccc2n1[C@H]1CC[C@H](O)CC1`: 2% and -0.19.
With `O=C1C[C@H](Cn2ccnc2-c2nc3c(s2)CCCC3)CN1C1CC1`, the “% Inhibition” value was -3% and the Z score is 0.53.
On to `CS(=O)(=O)c1ccc(-c2cccc(O)n2)cc1`, for which the “% Inhibition” value is reported as -8% and the Z score was determined as 1.09.
For `CCN1C(=O)c2cc(NC(=O)C3CCCCC3)ccc2Oc2ccccc21`, the “% Inhibition” value is reported as -9% and the Z score was 1.
For the molecule `COc1ccc(COCC(=O)N[C@@H](C)[C@H]2COC(C)(C)O2)cc1`, the “% Inhibition” value is -5% and the Z score was determined as 1.07.
In the case of `O=C(Nc1cc2n(n1)CCCC2)N1CC(O)(c2cccc(Br)c2)C1`, the “% Inhibition” value is -5% and the Z score is 0.7.
The matching figures for `CC1(C(=O)NCc2ccccc2S(C)(=O)=O)CCOCC1`: -2% and 0.25.
Regarding `O=S1(=O)CCN(Cc2nc(-c3ccncc3)no2)CC1`, the “% Inhibition” value is reported as -13% and the Z score is reported as 1.17.
The matching figures for `CC(C)C(=O)N1CC(OCc2ccccc2Cl)C1`: -9% and 1.53.
Regarding `CCn1nc(C(=O)N2CCCCCC2)c2c1CC[C@H](NCCc1ccccc1F)C2`, the “% Inhibition” value stood at 0% and the Z score amounted to 0.03.
For `COCc1nc([C@H](C)NC(C)=O)n(-c2cccc(C)n2)n1`, the “% Inhibition” value is -9% and the Z score was found to be 1.21.
As for `O=c1[nH]nc(CCn2ccnc2-c2ccncc2)[nH]1`, the “% Inhibition” value is -16% and the Z score worked out at 2.14.
As to `Cc1cc(C#N)cc(C)c1OCc1nnn(C)n1`, the “% Inhibition” value is listed as -15% and the Z score is reported as 2.77.
For `CNC(=O)Nc1cccc(NC(=O)CN(C)C(=O)OC(C)(C)C)c1`, the “% Inhibition” value is reported as 9% and the Z score was -1.08.

Source of the values: ChEMBL document CHEMBL4888484, “Replenishing the malaria drug discovery pipeline: Screening and hit evaluation of the MMV Hit Generation Library 1 (HGL1) against asexual blood stage Plasmodium falciparum ,using a nano luciferase reporter read-out” (2022).
